# From the supplement of paper PMC8728848
# The other results are listed elsewhere or left out.
# Columns and labels:
# Test in all cases: glycan array binding signal (z-score within array); higher = stronger binding
# Conditions in all cases: glycan notation: IUPAC condensed, linker removed
# [1] = target: Fuc(a1-2)Gal
# In short: (§1)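 From the Consortium for Functional Glycomics database, 3228 arrays were curated, keeping only those whose protein sequence was available. Binding is given as a within-array Z-score averaged across arrays sharing a protein sequence and across linkers. Negative Z-scores can be read as non-binding.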
# [2] = target: Fuc(a1-2)Gal(b1-3)GalNAc
# In short: as §1
# [3] = target: Fuc(a1-2)Gal(b1-3)GalNAc(b1-3)Gal
# In short: as §1
# [4] = target: Fuc(a1-2)Gal(b1-3)GalNAc(b1-3)Gal(a1-4)Gal(b1-4)Glc
# In short: as §1
# [5] = target: Fuc(a1-2)Gal(b1-3)GalNAc(b1-3)Gal(b1-4)Glc
# In short: as §1
# [6] = target: Fuc(a1-2)Gal(b1-3)GalNAc(b1-4)[Neu5Ac(a2-3)]Gal(b1-4)Glc
# In short: as §1
# [7] = target: Fuc(a1-2)Gal(b1-3)[Fuc(a1-4)]GlcNAc
# In short: as §1
# [8] = target: Fuc(a1-2)Gal(b1-4)Glc
# In short: as §1
# [9] = target: Fuc(a1-2)Gal(b1-4)GlcNAc
# In short: as §1
# [10] = target: Fuc(a1-2)Gal(b1-4)GlcNAc(b1-3)Gal(b1-4)GlcNAc
# In short: as §1
# [11] = target: Fuc(a1-2)Gal(b1-4)GlcNAc(b1-3)Gal(b1-4)GlcNAc(b1-3)Gal(b1-4)GlcNAc
# In short: as §1
# [12] = target: Fuc(a1-2)Gal(b1-4)[Fuc(a1-3)]GalNAc(b1-3)Gal(b1-4)[Fuc(a1-3)]GlcNAc
# In short: as §1
# [13] = target: Fuc(a1-2)Gal(b1-4)[Fuc(a1-3)]GalNAc(b1-3)Gal(b1-4)[Fuc(a1-3)]GlcNAc(b1-3)Gal(b1-4)[Fuc(a1-3)]GalNAc
# In short: as §1
# [14] = target: Fuc(a1-2)Gal(b1-4)[Fuc(a1-3)]GlcNAc
# In short: as §1
# [15] = target: Fuc(a1-2)GlcNAc
# In short: as §1
# [16] = target: Fuc(a1-2)[Gal(a1-3)]Gal
# In short: as §1
# [17] = target: Fuc(a1-2)[Gal(a1-3)]Gal(b1-3)GlcNAc
# In short: as §1
# [18] = target: Fuc(a1-2)[Gal(a1-3)]Gal(b1-4)Glc
# In short: as §1
# [19] = target: Fuc(a1-2)[Gal(a1-3)]Gal(b1-4)GlcNAc
# In short: as §1
# [20] = target: Fuc(a1-2)[Gal(a1-3)]Gal(b1-4)[Fuc(a1-3)]GlcNAc
# In short: as §1
# [21] = target: Fuc(a1-2)[Gal(a1-4)]Gal(b1-4)GalNAc
# In short: as §1
# [22] = target: Fuc(a1-2)[GalNAc(a1-3)]Gal
# In short: as §1
# [23] = target: Fuc(a1-2)[GalNAc(a1-3)]Gal(b1-3)GlcNAc
# In short: as §1
# [24] = target: Fuc(a1-2)[GalNAc(a1-3)]Gal(b1-4)Glc
# In short: as §1
# [25] = target: Fuc(a1-2)[GalNAc(a1-3)]Gal(b1-4)GlcNAc
# In short: as §1
# [26] = target: Fuc(a1-2)[GalNAc(a1-3)]Gal(b1-4)[Fuc(a1-3)]GlcNAc
# In short: as §1
# [27] = target: Fuc(a1-2)[GalNAc(a1-4)]Gal(b1-4)GlcNAc
# In short: as §1
# [28] = target: Fuc(a1-3)GlcNAc
# In short: as §1
# [29] = target: Fuc(a1-3)[Gal(b1-4)]GlcNAc
# In short: as §1
# [30] = target: Fuc(a1-3)[Gal(b1-4)]GlcNAc(b1-4)Gal(b1-4)[Fuc(a1-3)]GlcNAc
# In short: as §1
# [31] = target: Fuc(a1-3)[Gal(b1-4)]GlcNAc(b1-4)Gal(b1-4)[Fuc(a1-3)]GlcNAc(b1-4)Gal(b1-4)[Fuc(a1-3)]GlcNAc
# In short: as §1
# [32] = target: Fuc(a1-3)[Gal3S(b1-4)]GlcNAc
# In short: as §1
# [33] = target: Fuc(a1-3)[GalNAc(b1-4)]Gal(b1-4)GlcNAc
# In short: as §1
# [34] = target: Fuc(a1-4)GlcNAc
# In short: as §1
# [35] = target: Fuc(b1-3)GlcNAc
# In short: as §1
# [36] = target: Gal(a1-2)Gal
# In short: as §1
# [37] = target: Gal(a1-3)Gal
# In short: as §1
# [38] = target: Gal(a1-3)Gal(b1-3)Glc
# In short: as §1
# [39] = target: Gal(a1-3)Gal(b1-3)GlcNAc
# In short: as §1
# [40] = target: Gal(a1-3)Gal(b1-4)GlcNAc
# In short: as §1
# [41] = target: Gal(a1-3)Gal(b1-4)[Fuc(a1-3)]GalNAc
# In short: as §1
# [42] = target: Gal(a1-3)GlcNAc
# In short: as §1
# [43] = target: Gal(a1-3)[Gal(a1-4)]Gal(b1-4)GlcNAc
# In short: as §1
# [44] = target: Gal(a1-4)Gal(b1-4)Gal
# In short: as §1
# [45] = target: Gal(a1-4)Gal(b1-4)GalNAc
# In short: as §1
# [46] = target: Gal(a1-4)GlcNAc
# In short: as §1
# [47] = target: Gal(a1-6)Glc
# In short: as §1
# [48] = target: Gal(b1-2)Gal
# In short: as §1
# [49] = target: Gal(b1-3)Gal
# In short: as §1
# [50] = target: Gal(b1-3)GalNAc
# In short: as §1
# [51] = target: Gal(b1-3)GalNAc(b1-3)Gal(a1-4)Gal(b1-4)Glc
# In short: as §1
# [52] = target: Gal(b1-3)GalNAc(b1-3)Gal(b1-4)Glc
# In short: as §1
# [53] = target: Gal(b1-3)GalNAc(b1-3)Gal(b1-4)GlcNAc
# In short: as §1
# [54] = target: Gal(b1-3)GalNAc(b1-4)Gal(b1-4)Glc
# In short: as §1
# [55] = target: Gal(b1-3)GalNAc(b1-4)[Neu5Ac(a2-3)]Gal(b1-4)Glc
# In short: as §1
# [56] = target: Gal(b1-3)[Fuc(a1-4)]GlcNAc
# In short: as §1
# [57] = target: Gal(b1-3)[Fuc(a1-4)]GlcNAc(b1-3)Gal(b1-4)GlcNAc
# In short: as §1
# [58] = target: Gal(b1-3)[Fuc(a1-4)]GlcNAc(b1-3)Gal(b1-4)[Fuc(a1-3)]GlcNAc
# In short: as §1
# [59] = target: Gal(b1-3)[GlcNAc(b1-6)]GalNAc
# In short: as §1
# [60] = target: Gal(b1-3)[GlcNAc(b1-6)]GlcNAc
# In short: as §1
# [61] = target: Gal(b1-3)[Neu5Ac(a2-6)]GalNAc
# In short: as §1
# [62] = target: Gal(b1-3)[Neu5Ac(a2-6)]GlcNAc
# In short: as §1
# [63] = target: Gal(b1-3)[Neu5Ac(a2-6)]GlcNAc(a1-4)Gal(b1-4)Glc
# In short: as §1
# [64] = target: Gal(b1-3)[Neu5Ac(b2-6)]GlcNAc
# In short: as §1
# [65] = target: Gal(b1-4)GalNAc(a1-3)[Fuc(a1-2)]Gal(b1-4)GlcNAc
# In short: as §1
# [66] = target: Gal(b1-4)GalNAc(b1-3)[Fuc(a1-2)]Gal(b1-4)GlcNAc
# In short: as §1
# [67] = target: Gal(b1-4)Glc
# In short: as §1
# [68] = target: Gal(b1-4)Glc6S
# In short: as §1
# [69] = target: Gal(b1-4)GlcNAc
# In short: as §1
# [70] = target: Gal(b1-4)GlcNAc(b1-2)Man(a1-3)[Gal(b1-4)GlcNAc(b1-2)Man(a1-6)]Man(b1-4)GlcNAc(b1-4)GlcNAc
# In short: as §1
# [71] = target: Gal(b1-4)GlcNAc(b1-3)Gal(b1-4)Glc
# In short: as §1
# [72] = target: Gal(b1-4)GlcNAc(b1-3)Gal(b1-4)GlcNAc
# In short: as §1
# [73] = target: Gal(b1-4)GlcNAc(b1-3)Gal(b1-4)GlcNAc(b1-3)Gal(b1-4)GlcNAc
# In short: as §1
# [74] = target: Gal(b1-4)GlcNAc(b1-3)Gal(b1-4)[Fuc(a1-3)]GlcNAc(b1-3)Gal(b1-4)[Fuc(a1-3)]GlcNAc
# In short: as §1
# [75] = target: Gal(b1-4)GlcNAc(b1-3)GalNAc
# In short: as §1
binder,measurement,setting,value
RNase 1 (Homo sapiens) (protein) KESRAKKFQRQHMDSDSSPSSSSTYCNQMMRRRNMTQGRCKPVNTFVHEPLVDVQNVCFQEKVTCKNGQGNCYKSNSSMHITDCRLTNGSRYPNCAYRTSPKERHIIVACEGSPYVPVHFDASVEDST,glycan array binding signal (z-score),[1],-0.156
same,glycan array binding signal (z-score),[2],-0.157
same,glycan array binding signal (z-score),[3],-0.195
same,glycan array binding signal (z-score),[4],1.93
same,glycan array binding signal (z-score),[5],-0.138
same,glycan array binding signal (z-score),[6],-0.19
same,glycan array binding signal (z-score),[7],-0.174
same,glycan array binding signal (z-score),[8],-0.104
same,glycan array binding signal (z-score),[9],-0.178
same,glycan array binding signal (z-score),[10],-0.225
same,glycan array binding signal (z-score),[11],-0.177
same,glycan array binding signal (z-score),[12],-0.193
same,glycan array binding signal (z-score),[13],-0.138
same,glycan array binding signal (z-score),[14],-0.212
same,glycan array binding signal (z-score),[15],-0.17
same,glycan array binding signal (z-score),[16],-0.14
same,glycan array binding signal (z-score),[17],-0.126
same,glycan array binding signal (z-score),[18],-0.211
same,glycan array binding signal (z-score),[19],-0.134
same,glycan array binding signal (z-score),[20],-0.168
same,glycan array binding signal (z-score),[21],0.238
same,glycan array binding signal (z-score),[22],-0.151
same,glycan array binding signal (z-score),[23],-0.241
same,glycan array binding signal (z-score),[24],-0.171
same,glycan array binding signal (z-score),[25],-0.167
same,glycan array binding signal (z-score),[26],-0.057
same,glycan array binding signal (z-score),[27],-0.213
same,glycan array binding signal (z-score),[28],-0.013
same,glycan array binding signal (z-score),[29],-0.227
same,glycan array binding signal (z-score),[30],-0.08
same,glycan array binding signal (z-score),[31],-0.074
same,glycan array binding signal (z-score),[32],-0.168
same,glycan array binding signal (z-score),[33],-0.22
same,glycan array binding signal (z-score),[34],-0.217
same,glycan array binding signal (z-score),[35],-0.234
same,glycan array binding signal (z-score),[36],-0.153
same,glycan array binding signal (z-score),[37],-0.208
same,glycan array binding signal (z-score),[38],-0.212
same,glycan array binding signal (z-score),[39],-0.213
same,glycan array binding signal (z-score),[40],-0.254
same,glycan array binding signal (z-score),[41],-0.199
same,glycan array binding signal (z-score),[42],-0.175
same,glycan array binding signal (z-score),[43],-0.158
same,glycan array binding signal (z-score),[44],7.93
same,glycan array binding signal (z-score),[45],8.87
same,glycan array binding signal (z-score),[46],-0.225
same,glycan array binding signal (z-score),[47],0.634
same,glycan array binding signal (z-score),[48],0
same,glycan array binding signal (z-score),[49],-0.006
same,glycan array binding signal (z-score),[50],-0.191
same,glycan array binding signal (z-score),[51],0.495
same,glycan array binding signal (z-score),[52],0.641
same,glycan array binding signal (z-score),[53],-0.176
same,glycan array binding signal (z-score),[54],-0.202
same,glycan array binding signal (z-score),[55],0.026
same,glycan array binding signal (z-score),[56],-0.204
same,glycan array binding signal (z-score),[57],-0.135
same,glycan array binding signal (z-score),[58],-0.114
same,glycan array binding signal (z-score),[59],-0.236
same,glycan array binding signal (z-score),[60],-0.197
same,glycan array binding signal (z-score),[61],-0.232
same,glycan array binding signal (z-score),[62],-0.195
same,glycan array binding signal (z-score),[63],0.379
same,glycan array binding signal (z-score),[64],-0.224
same,glycan array binding signal (z-score),[65],-0.115
same,glycan array binding signal (z-score),[66],-0.218
same,glycan array binding signal (z-score),[67],-0.073
same,glycan array binding signal (z-score),[68],-0.14
same,glycan array binding signal (z-score),[69],-0.196
same,glycan array binding signal (z-score),[70],-0.171
same,glycan array binding signal (z-score),[71],0.369
same,glycan array binding signal (z-score),[72],-0.165
same,glycan array binding signal (z-score),[73],-0.224
same,glycan array binding signal (z-score),[74],-0.101
same,glycan array binding signal (z-score),[75],-0.22
